{
  "source": "paper PMC4336329",
  "about": "(PLoS ONE, 2015)",
  "note": "Among all 310,000 compounds or so, about 2,200 (0.71%) showed an effect of 50% or more. Effects have a minus sign here. The list shows a part of the results.",
  "data": [
    {"target": "human ether-à-go-go-related gene (hERG) potassium channel (human, UniProt Q12809)", "sequence (Q12809 whole entry, looked up)": "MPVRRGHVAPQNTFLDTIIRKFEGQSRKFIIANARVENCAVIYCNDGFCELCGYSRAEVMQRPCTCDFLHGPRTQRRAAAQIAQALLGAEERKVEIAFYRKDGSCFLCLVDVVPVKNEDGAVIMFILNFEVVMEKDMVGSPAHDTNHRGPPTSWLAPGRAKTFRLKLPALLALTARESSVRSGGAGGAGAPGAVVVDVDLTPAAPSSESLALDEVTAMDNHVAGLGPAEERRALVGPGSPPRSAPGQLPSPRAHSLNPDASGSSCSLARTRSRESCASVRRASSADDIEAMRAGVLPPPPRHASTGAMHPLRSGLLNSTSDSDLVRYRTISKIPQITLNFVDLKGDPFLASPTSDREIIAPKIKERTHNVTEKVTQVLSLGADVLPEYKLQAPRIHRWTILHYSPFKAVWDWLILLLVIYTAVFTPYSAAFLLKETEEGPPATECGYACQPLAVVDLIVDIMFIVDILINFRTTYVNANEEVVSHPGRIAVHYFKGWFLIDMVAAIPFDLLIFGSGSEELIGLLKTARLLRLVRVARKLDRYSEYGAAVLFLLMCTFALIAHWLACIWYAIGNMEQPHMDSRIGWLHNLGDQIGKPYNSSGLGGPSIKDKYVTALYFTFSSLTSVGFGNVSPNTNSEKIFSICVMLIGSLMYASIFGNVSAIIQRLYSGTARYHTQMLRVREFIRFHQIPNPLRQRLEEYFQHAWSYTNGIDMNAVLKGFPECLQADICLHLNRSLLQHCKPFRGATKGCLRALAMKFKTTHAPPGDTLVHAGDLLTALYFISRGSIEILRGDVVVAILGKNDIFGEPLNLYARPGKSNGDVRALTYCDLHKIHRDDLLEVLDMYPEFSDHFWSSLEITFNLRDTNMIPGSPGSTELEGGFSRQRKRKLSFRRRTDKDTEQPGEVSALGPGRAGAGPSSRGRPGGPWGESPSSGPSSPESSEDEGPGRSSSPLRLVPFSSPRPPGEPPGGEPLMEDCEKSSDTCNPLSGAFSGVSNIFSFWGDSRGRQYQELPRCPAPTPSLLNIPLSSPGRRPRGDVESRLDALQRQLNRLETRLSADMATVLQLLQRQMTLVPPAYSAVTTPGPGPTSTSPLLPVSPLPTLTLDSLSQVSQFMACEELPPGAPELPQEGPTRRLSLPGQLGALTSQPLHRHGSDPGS", "assay": "primary screen, population patch clamp on CHO cells stably expressing hERG", "units": {"hERG current change (%, negative = inhibition) at 1uM": "%"}, "values": [
      {"compound": "CCN1CCn2c1nc(N1CCOCC1)nc2=O", "hERG current change (%, negative = inhibition) at 1uM": 12.3},
      {"compound": "CCN(C(=O)Cn1nnc(-c2ccccc2)n1)C1CCS(=O)(=O)C1", "note": "(stereo not shown)", "hERG current change (%, negative = inhibition) at 1uM": 12.8},
      {"compound": "CCNc1ccc(C(=O)OCC(=O)NC(C)c2ccccc2)cc1[N+](=O)[O-]", "note": "(stereo not shown)", "hERG current change (%, negative = inhibition) at 1uM": 5.32},
      {"compound": "CCOCCCNC(=S)N1CCN(c2nc(-c3ccccc3)cs2)CC1", "hERG current change (%, negative = inhibition) at 1uM": 9.5},
      {"compound": "Cc1ccc(N2CC(C(=O)Nc3nccs3)CC2=O)cc1Cl", "note": "(stereo not shown)", "hERG current change (%, negative = inhibition) at 1uM": 6.52},
      {"compound": "O=C(Cc1coc2cc3c(cc12)CCC3)NCC1(N2CCCCC2)CCCCC1", "hERG current change (%, negative = inhibition) at 1uM": -59.2},
      {"compound": "Cc1nc2ncc(Br)cc2[nH]1", "hERG current change (%, negative = inhibition) at 1uM": 7.94},
      {"compound": "CCC(=O)NCCCc1nc(-c2ccccc2)no1", "hERG current change (%, negative = inhibition) at 1uM": 10.6},
      {"compound": "O=C(Nc1ccccc1)OCCNC(=O)c1cccc(Cl)c1", "hERG current change (%, negative = inhibition) at 1uM": 12.1},
      {"compound": "O=C(CCCn1c(=O)[nH]c2ccccc2c1=O)NCCSCc1ccccc1", "hERG current change (%, negative = inhibition) at 1uM": 8.61},
      {"compound": "Cc1ccc(S(=O)(=O)N[C@@H](C)C(=O)N2CCC(C(=O)N3CCC[C@H]3C(=O)O)CC2)cc1", "hERG current change (%, negative = inhibition) at 1uM": 12.9},
      {"compound": "CCc1c(C)c(C#N)c2nc3ccccc3n2c1NCCN(C)C", "hERG current change (%, negative = inhibition) at 1uM": 1.43},
      {"compound": "COCCNC(=O)c1nc2c(nnn2Cc2cc(C)ccc2C)c(=O)[nH]1", "hERG current change (%, negative = inhibition) at 1uM": 15},
      {"compound": "COc1cccc(NC(=O)CN(C)C(=O)CCCc2c[nH]c3ccccc23)c1", "hERG current change (%, negative = inhibition) at 1uM": 9.56},
      {"compound": "CCN1C(=O)C(CC(=O)Nc2ccc(Br)cc2)N(CCCc2ccccc2)C1=S", "note": "(stereo not shown)", "hERG current change (%, negative = inhibition) at 1uM": 16.2},
      {"compound": "COc1ccc(OC)c(N(CC(=O)Nc2ccccc2F)S(=O)(=O)c2ccccc2)c1", "hERG current change (%, negative = inhibition) at 1uM": 4.9},
      {"compound": "O=S(=O)(NC(=NCc1ccccc1)c1ccccc1F)c1ccccc1", "hERG current change (%, negative = inhibition) at 1uM": 4.29},
      {"compound": "CCOC(=O)c1c(N2C(=O)Nc3ccccc3N2O)n[nH]c1-c1cccc(OC)c1", "hERG current change (%, negative = inhibition) at 1uM": 10},
      {"compound": "CCOc1ccccc1N(C(=O)c1snc(C(N)=O)c1N)C(C(=O)NC1CCCC1)c1ccco1", "note": "(stereo not shown)", "hERG current change (%, negative = inhibition) at 1uM": -8.25},
      {"compound": "O=C(CCc1ccccc1)Nc1nc2nc(-c3ccccc3)cc(=O)n2[nH]1", "hERG current change (%, negative = inhibition) at 1uM": 11.9},
      {"compound": "O=C1N/C(=C/c2ccc(N3CCOCC3)o2)C(=O)N1c1cccc(Cl)c1", "hERG current change (%, negative = inhibition) at 1uM": 6.87},
      {"compound": "O=C(NCC1CCCCC1)c1cc([N+](=O)[O-])ccc1N1CCOCC1", "hERG current change (%, negative = inhibition) at 1uM": -1.47},
      {"compound": "O=S(=O)(c1cccc(COc2ccc(Cl)cc2Cl)c1)N1CCOCC1", "hERG current change (%, negative = inhibition) at 1uM": 5.31},
      {"compound": "COc1ccccc1CNC(=O)c1cc(S(=O)(=O)N2CCOCC2)cn1C", "hERG current change (%, negative = inhibition) at 1uM": 4.84},
      {"compound": "O=C(NCC1CCCN1S(=O)(=O)c1cccs1)c1ccc([N+](=O)[O-])cc1", "note": "(stereo not shown)", "hERG current change (%, negative = inhibition) at 1uM": -0.873},
      {"compound": "Cc1ccc(N2CC(NC(=O)N3CCN(C(=O)c4ccco4)CC3)CC2=O)cc1", "note": "(stereo not shown)", "hERG current change (%, negative = inhibition) at 1uM": -5.94},
      {"compound": "COC(=O)c1ccc(CSc2nnc(CS(=O)Cc3ccc(Br)cc3)n2-c2ccccc2)cc1", "note": "(stereo not shown)", "hERG current change (%, negative = inhibition) at 1uM": 4.22},
      {"compound": "CCN(Cc1ccccc1)C(=O)c1cc(S(=O)(=O)N2CCOCC2)cn1C", "hERG current change (%, negative = inhibition) at 1uM": 16.4},
      {"compound": "CC1CN(c2ncnc3c2cnn3-c2ccc(Cl)cc2)CC(C)O1", "note": "(stereo not shown)", "hERG current change (%, negative = inhibition) at 1uM": 3.56},
      {"compound": "COc1ccc(N2C(=O)NC(NC(=O)c3cccnc3)(C(F)(F)F)C2=O)cc1", "note": "(stereo not shown)", "hERG current change (%, negative = inhibition) at 1uM": 16.6},
      {"compound": "CCCn1c(=N)n(CC(=O)c2cccs2)c2ccccc21", "hERG current change (%, negative = inhibition) at 1uM": -2.14},
      {"compound": "COc1cc(-c2nc3ccccn3c2NCc2ccccc2)ccc1SC1CCCCC1.O=C(O)C(F)(F)F", "hERG current change (%, negative = inhibition) at 1uM": 9.85},
      {"compound": "COC(=O)c1ccc(CSc2nnc(NC(=O)c3cc4c(s3)CCCC4)s2)cc1", "hERG current change (%, negative = inhibition) at 1uM": 7.36},
      {"compound": "Cc1ccc(-n2c(C)nnc2SCC(=O)N(C)C2CCS(=O)(=O)C2)cc1", "note": "(stereo not shown)", "hERG current change (%, negative = inhibition) at 1uM": 15.8},
      {"compound": "O=C(NC(=S)N1CCc2ccccc21)c1ccccc1", "hERG current change (%, negative = inhibition) at 1uM": 8.35},
      {"compound": "CCOC(=O)CNC(=O)CSc1nccn1Cc1ccco1", "hERG current change (%, negative = inhibition) at 1uM": 10.9},
      {"compound": "COc1cc(C)c(NC(=O)C2CCN(S(=O)(=O)c3cccs3)CC2)cc1OC", "hERG current change (%, negative = inhibition) at 1uM": -9.17},
      {"compound": "Cn1c(C2=C(O)CN(c3ccc4c(c3)OCCO4)C2=N)nc2ccccc21", "hERG current change (%, negative = inhibition) at 1uM": -1.57},
      {"compound": "CSc1sc(-c2ccnc(SCCS(C)(=O)=O)n2)c(-c2ccccc2)c1C#N", "hERG current change (%, negative = inhibition) at 1uM": 4.72},
      {"compound": "Cc1cc(C)cc(C(=O)NCC(=O)NCc2ccc(S(N)(=O)=O)cc2)c1", "hERG current change (%, negative = inhibition) at 1uM": 6.79},
      {"compound": "O=C(CSc1nnnn1-c1ccc(Cl)cc1)NNC(=O)c1ccc([N+](=O)[O-])cc1", "hERG current change (%, negative = inhibition) at 1uM": -9.45},
      {"compound": "CCN1C(=O)c2cccc3c(NC(=O)c4ccc(S(=O)(=O)N(C)C)cc4)ccc1c23", "hERG current change (%, negative = inhibition) at 1uM": -6.2},
      {"compound": "COc1ccc(OC)c2c(C)cc(N3CCCN(C)CC3)nc12", "hERG current change (%, negative = inhibition) at 1uM": 11},
      {"compound": "O=C(NC1CCCC1)C1CCC(CNS(=O)(=O)c2ccccc2)CC1", "note": "(stereo not shown)", "hERG current change (%, negative = inhibition) at 1uM": 15.9},
      {"compound": "C=CCn1c(COc2ccccc2)nnc1SC(C)C(=O)N/N=C/c1cc(Cl)ccc1O", "note": "(stereo not shown)", "hERG current change (%, negative = inhibition) at 1uM": 7.57},
      {"compound": "Cc1ccc2c(C(=O)CN3CCSCC3)c(C)[nH]c2c1", "hERG current change (%, negative = inhibition) at 1uM": 14.4},
      {"compound": "CC(C)C1COC(c2cccn2Cc2ccccc2Cl)=N1", "note": "(stereo not shown)", "hERG current change (%, negative = inhibition) at 1uM": 11.9},
      {"compound": "COc1ccc(C(=O)N2CCN(S(=O)(=O)c3ccccc3)CC2)c(OC)c1", "hERG current change (%, negative = inhibition) at 1uM": -8.79},
      {"compound": "CCCNC(=O)Cn1c(=O)/c(=C\\c2ccc(-c3ccc([N+](=O)[O-])cc3)o2)s/c1=C\\C(=O)C(C)(C)C", "hERG current change (%, negative = inhibition) at 1uM": 2.2},
      {"compound": "Cc1cc(Nc2ccc(C(=O)N3CCCCC3)cc2)c2cccc(C)c2n1", "hERG current change (%, negative = inhibition) at 1uM": 1.48},
      {"compound": "Cc1ccc(NC2CCCN(C(=O)c3cnc4ccccn4c3=O)C2)cc1C", "note": "(stereo not shown)", "hERG current change (%, negative = inhibition) at 1uM": 5.56},
      {"compound": "NS(=O)(=O)c1ccc2c(c1)oc(=O)c1cc(S(N)(=O)=O)ccc12", "hERG current change (%, negative = inhibition) at 1uM": 1.79},
      {"compound": "CC(=O)c1c(C)[nH]c(C(=O)Nc2cc(C)cc(C)c2)c1C", "hERG current change (%, negative = inhibition) at 1uM": 2.12},
      {"compound": "COc1ccccc1NC(=O)Nc1nc(CC(=O)NCc2cccnc2)cs1", "hERG current change (%, negative = inhibition) at 1uM": 13.4},
      {"compound": "COc1cc2c(=O)n(CC3CCCO3)c(=O)n(CC(=O)Nc3cccc(Cl)c3)c2cc1OC", "note": "(stereo not shown)", "hERG current change (%, negative = inhibition) at 1uM": 14.5}
    ]}
  ]
}
